# From PubChem BioAssay AID1745853 (National Center for Advancing Translational Sciences (NCATS), 2022)
# This is one part of the list. The main result of the screen is listed elsewhere. These columns were measured beside it and carry no call.
# Columns and labels:
# Test in all cases: Primary Screen for Target Class Profiling of Small Molecule Inhibitors of Methyltransferases
# [1] = biological target: Glycine N-methyltransferase (Homo sapiens) (UniProt Q14749); settings: purified enzyme, MTase-Glo SAH luminescence; measured here: GNMT inhibition; at 40 µM; stronger effect = lower value
# Procedure, shortened: (§1)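 Each enzyme was assayed with SAM and its substrate. SAH formation detected by MTase-Glo luminescence; single-point 40 uM screen[…].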
# [2] = biological target: Guanidinoacetate N-methyltransferase (Homo sapiens) (UniProt Q14353); settings: purified enzyme, MTase-Glo SAH luminescence; measured here: GAMT inhibition; at 40 µM; stronger effect = lower value
# Procedure, shortened: as §1
# [3] = biological target: Histamine N-methyltransferase (Homo sapiens) (UniProt P50135); settings: purified enzyme, MTase-Glo SAH luminescence; measured here: HNMT inhibition; at 40 µM; stronger effect = lower value
# Procedure, shortened: as §1
# [4] = biological target: Nicotinamide N-methyltransferase (Homo sapiens) (UniProt P40261); settings: purified enzyme, MTase-Glo SAH luminescence; measured here: NNMT inhibition; at 40 µM; stronger effect = lower value
# Procedure, shortened: as §1
# [5] = biological target: Phenylethanolamine N-methyltransferase (Homo sapiens) (UniProt P11086); settings: purified enzyme, MTase-Glo SAH luminescence; measured here: PNMT inhibition; at 40 µM; stronger effect = lower value
# Procedure, shortened: as §1
# % is scaled to controls: 0 for no effect and ±100 for the full control effect.
SMILES,"activity change, negative = inhibition [1] [%]","activity change, negative = inhibition [2] [%]","activity change, negative = inhibition [3] [%]","activity change, negative = inhibition [4] [%]","activity change, negative = inhibition [5] [%]"
C=C1C(=O)OC2C1C(O)CC1(C)C(O)CCC(C=O)C21 (stereo not drawn),3.31,1.49,11.3,-7.9,4.05
C=C1C[C@]23C[C@H]1CC[C@H]2[C@]1(C)CC[C@H](O)[C@@](C)(C(=O)O)[C@H]1[C@@H]3C(=O)O,0,-8.78,5.66,-23.3,-10
c1ccc([C@H]2CN3CCSC3=N2)cc1,2.56,10.5,-7.79,-2.28,6.86
CCCCN1C(=O)c2cc(C(=O)Nc3ccc(Cl)cc3C)nn2CC1(C)C(=O)NC1CCCC1 (stereo not drawn),0.323,1.49,-13.4,-0.6,-0.716
COc1ccc2cc3n(c2c1)CC(C)(C(=O)NC1CCCCCCC1)N(CCN1CCOCC1)C3=O (stereo not drawn),1.7,-0.268,1.28,-0.768,-4.85
COc1ccc(NC(=O)Cn2nc3n(CCc4ccccc4)c(=O)c4ccccc4n3c2=O)cc1OC,3.99,4.83,7,5.38,4.5
COc1cc(NC(=O)CSc2nnc3n(CC(C)C)c(=O)c4cc(F)ccc4n23)cc(OC)c1,4.31,1.92,9.36,5.87,1.21
CC1=C2C(=O)C=C(CO[C@@H]3O[C@H](CO)[C@@H](O)[C@H](O)[C@H]3O)[C@@H]2[C@H]2OC(=O)[C@H](C)[C@@H]2[C@@H](O)C1,3.66,10.6,6.04,-2.99,8.59
O=C(NCCCCCCCCNC(=O)C(Cl)Cl)C(Cl)Cl,-2.75,-0.674,2.41,-9.54,-2.49
COc1ccc(N2CCN(S(=O)(=O)c3ccc4c(c3)n(C)c(=O)n4C)CC2)cc1,8.44,-4,-2.91,2.84,-4.54
COc1ccc2c(c1)c(NC(C)=O)c1n2CC(C)(C(=O)NC2CCCC2)N(Cc2ccccn2)C1=O (stereo not drawn),5.59,0,3.83,7.11,2.96
O=C(CCc1nnn2c1CN(C(=O)C1CCCC1)CC2)N1CCOCC1,-2.68,-5.04,-1.18,-5.44,4.32
CCN(Cc1ccccc1)C(=O)CCn1ccc2cc(S(=O)(=O)N3CCCCC3)ccc21,4.41,0,1.35,2.46,-0.109
O=S(=O)(NCCn1c(-c2ccccc2)nc2ccccc21)c1ccc(F)c(F)c1,-6.95,-0.775,5.36,-7.89,12.5
CCCN1C(=O)c2cc(C(=O)NCCc3ccc(Cl)cc3)nn2CC1(C)C(=O)NC1CCCC1 (stereo not drawn),4.99,0.406,-4.73,1.68,1.76
CCCN1C(=O)c2c(C(=O)NCCCN3CCOCC3)ncn2CC1(C)C(=O)NCc1ccc(C)cc1 (stereo not drawn),-1.02,3.65,3.06,0.161,-1.03
Cc1noc(C)c1-c1cc2c(cc(C)n2C)c(-c2ccnn2C)n1,-13.4,-10.7,-19.3,-31,-13.9
CCC(C)N1Cc2cc(NC(=O)Cc3cccc(OC)c3)ccc2OCC1=O (stereo not drawn),-6.09,-1.23,-4.2,-12.3,8.86
CCn1cc(S(=O)(=O)NCC2Cn3cccc3C(=O)N2C)cn1 (stereo not drawn),-4.17,-3,-1.56,-4.33,-7.88
Cc1nc(N2CCCCCC2)ncc1C(=O)O,-12,-10.4,-6.03,-17.8,-14.4

SMILES,"activity change, negative = inhibition [1] [%]","activity change, negative = inhibition [2] [%]","activity change, negative = inhibition [3] [%]","activity change, negative = inhibition [4] [%]","activity change, negative = inhibition [5] [%]"
CC(C)/C=C1/NC(=O)C(C(C)C)n2c1nc1c(O)cccc1c2=O (stereo not drawn),0,-4.65,-5.96,-24.8,-3.29
CCN(CC)CC1CCN(c2ncc3ncnc(Nc4ccc(F)c(Cl)c4)c3n2)CC1,–,-19.4,–,-30.7,-40.4
COc1cc(C(C)=O)ccc1O[C@@H]1O[C@H](CO)[C@@H](O)[C@H](O)[C@H]1O,-4.79,-9.97,2.2,-20.1,-7.08
Cc1ccc(C)c(C(=O)Cn2nc3n(C)c(=O)c4ccc(C(=O)NC5CCCC5)cc4n3c2=O)c1,8,1.54,2.54,5.77,7.25
CCCCN1C(=O)c2cc(C(=O)Nc3cc(C)ccc3OC)nn2CC1(C)C(=O)NC1CCCC1 (stereo not drawn),3.91,0.759,-3.83,4.75,4.86
Cc1cc(Cl)ccc1N1C(=O)c2cc(C(C)(C)C)nn2CC1(C)C(=O)NCCC(C)C (stereo not drawn),5.22,2.45,4.05,5.77,-2.61
Cc1ccc(NC(=O)Cn2c(=O)oc3cc(S(=O)(=O)N4CCCC4)ccc32)c(Br)c1,14.6,0,13.1,2.4,6.47
Cc1noc2c(-c3cnn(C)c3)cc(-c3cccnc3)nc12,-14.1,-3.18,-8.5,-19,-4.3
CC(CNC(=O)CCn1ccc2cc(S(=O)(=O)N3CCCC3)ccc21)c1ccccc1 (stereo not drawn),3.6,1.84,7.69,2.63,4.27
Cc1ccc([N+](=O)[O-])cc1S(=O)(=O)N(C)C,-8.22,1.75,-1.47,-10.7,3.14
CCc1noc([C@@H]2CC(F)(F)CN2C(=O)c2cocn2)n1,-3.01,-3.13,-1.04,-7.92,-6.56
CCCn1c(=O)c2ccc(C(=O)NC(C)CC)cc2n2c(=O)n(CC(=O)Nc3cc(F)ccc3F)nc12 (stereo not drawn),-3.8,-1.5,-2.68,-3.22,-2.42
CCCn1c(=O)c2ccc(Cl)cc2n2c(=O)n(CC(=O)NCc3ccccc3Cl)nc12,-2.98,2.27,0.423,-5.33,-5.04
CC1(C(=O)NCc2ccccc2)Cc2ccccc2C(=O)N1Cc1cccc(C(F)(F)F)c1 (stereo not drawn),8.61,0,4.99,2.32,1.8
CCc1cc2c(cc3n2CC(C)(C(=O)NC2CCC(C)CC2)N(Cc2cccc(Cl)c2)C3=O)s1 (stereo not drawn),-6.18,2.9,-5.27,-3.92,-2.69
COc1ccc(-c2cc3n(n2)CC(C)(C(=O)NCc2ccccc2)N(Cc2ccc(C)cc2)C3=O)cc1 (stereo not drawn),7.5,0,6.27,14.6,3.15
O=C(CCn1ccn2nc3c(c2c1=O)CCCC3)N1CCSCC1,-1.05,1.44,1.18,-15.6,16.6
COc1cccc(CN2C(=O)c3cc(-c4ccccc4)nn3CC2(C)C(=O)NCc2ccccc2)c1 (stereo not drawn),9.35,1.39,9.26,5.96,2.24
O=C1C(N2CCN(S(=O)(=O)c3cc(F)ccc3F)CC2)CCN1Cc1cccnc1 (stereo not drawn),-3.15,-1.92,-0.078,-2.53,-2.41
O=C(O[C@@H]1O[C@H](CO)[C@@H](O)[C@H](O)[C@H]1O)c1ccccc1,4.21,2.16,13.8,-6.24,4.96

SMILES,"activity change, negative = inhibition [1] [%]","activity change, negative = inhibition [2] [%]","activity change, negative = inhibition [3] [%]","activity change, negative = inhibition [4] [%]","activity change, negative = inhibition [5] [%]"
O=C(C1CCCCC1)N1CCC(OC2CCN(Cc3cccnc3)CC2)CC1,-2.4,-2.49,0.304,1.73,2
COC(=O)C1=CO[C@@H](O[C@@H]2O[C@H](CO)[C@@H](O)[C@H](O)[C@H]2O)[C@H]2[C@@H]1[C@H](O)C[C@]2(C)O,0.239,-3.6,6.66,-12.5,2.77
O=C1COc2ccc(S(=O)(=O)N3CCCn4nc(CO)cc4C3)cc2N1,-2.56,3.16,0.909,-1.07,-0.078
CN(C)N(C)C(=O)[C@@]1(Cc2ccccc2)CCCN(C(=O)[C@@H](Cc2c[nH]c3ccccc23)NC(=O)C(C)(C)N)C1,-2.83,8.33,6.2,-10.6,3.23
CCCN1C(=O)c2c(C(=O)NCc3ccc(CC)cc3)ncn2CC1(C)C(=O)NC1CCCC1 (stereo not drawn),4.78,0.799,7.59,6.74,11.9
COc1cccc(CN2C(=O)c3nc4ccccc4n3CC2(C)C(=O)NC2CCC(C)CC2)c1 (stereo not drawn),-2.72,-2.51,7.76,-31,-5.71
COc1cc(C(=O)NCC2(N(C)C)CCCC2)cc(OC)c1OCc1ccccc1,-1.11,10.1,-19.7,-7.28,3.25
COc1ccc(F)c(F)c1C(=O)c1cnc(NC2CCN(S(C)(=O)=O)CC2)nc1N,3.39,1.16,8.54,-22.2,-1.99
c1cc(-c2nc(C3CCOC3)nn2Cc2ccc3c(c2)OCO3)[nH]n1 (stereo not drawn),-1.52,0.381,0.359,-3.85,2.22
CN1CCC(C(=O)N2Cc3ccccc3CC3(CCN(C)C3)C2)CC1 (stereo not drawn),-1.32,2.43,-7.76,-0.815,7.71
CC(C)NC(=O)CCn1ccc2cc(S(=O)(=O)N3CCCC3)ccc21,-1.52,1.44,0.334,2.09,-0.041
COc1ccc(Cc2nnc3ccc(C(=O)N4CCN(Cc5ccccc5)CC4)cn23)cc1,-6.59,-7.46,-8.23,-10.3,-7.56
O=C(c1ccc(C(F)(F)F)cc1)N1CCC2(C1)C(=NC1CCCCC1)NC(=O)N2c1cccnc1 (stereo not drawn),-6.13,-10.8,-3.62,-6.7,-6.47
COc1ccc(Cn2c(=O)c3ccccc3n3c(-c4ccc(NC(C)=O)cc4)nnc23)cc1,-5.85,0,7.21,-2.9,-0.038
Cc1ccc(N2C(=O)N[C@@H]3CCN(C(=O)CC4(CC(=O)O)CCCC4)[C@@H]3C2=O)cc1,-7.11,-6.18,-3.31,-6.33,-12.6
CC(C)C1c2cccn2CCN1C(=O)Nc1ccc(F)cc1F (stereo not drawn),3.27,0.657,-2.01,-1.8,4.77
O=C1NCCCCCN(S(=O)(=O)c2cccs2)[C@H]2CCCC[C@@H]12,-2.43,-4.13,-1.66,-7.83,8.18
CCN(CC)CCCCCCNc1cc(OC)cc2c(C)ccnc12,-5.12,-46.3,-45,-28.7,-74.1
C=C(C)C(=O)OC1CC2(C)OC(=CC2=O)C(=C)CC2OC(=O)C(COC)C12 (stereo not drawn),-0.694,2.22,8.91,-9.71,-3.23
Cc1ccc(NC(=O)CSc2nnc3n(CCCOC(C)C)c(=O)c4ccccc4n23)cc1C,3.33,0.302,7.36,0.358,1.79
